# Experimental data taken from the supplement of paper PMC8728848.
# This is one part of the list.
# Columns and labels:
# Test in all cases: glycan array binding signal (z-score within array); higher = stronger binding
# Details in all cases: glycan notation: IUPAC condensed, linker removed
# [1] = target: GlcNAc(b1-3)Gal(b1-4)GlcNAc(b1-2)[GlcNAc(b1-3)Gal(b1-4)GlcNAc(b1-6)]Man(a1-6)[GlcNAc(b1-3)Gal(b1-4)GlcNAc(b1-2)Man(a1-3)]Man(b1-4)GlcNAc(b1-4)GlcNAc
# Procedure, shortened: (§1)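 The Consortium for Functional Glycomics database supplied 3228 glycan arrays, of which those lacking an available protein sequence were dropped. The binding signal, a within-array Z-score, was averaged across arrays of the same protein sequence and across linkers. Negative scores can be read as non-binding.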
# [2] = target: GlcNAc(b1-3)Gal(b1-4)GlcNAc(b1-3)Gal(b1-4)GlcNAc
# Procedure, shortened: as §1
# [3] = target: GlcNAc(b1-3)Gal(b1-4)GlcNAc(b1-3)Gal(b1-4)GlcNAc(b1-2)Man(a1-3)[GlcNAc(b1-3)Gal(b1-4)GlcNAc(b1-3)Gal(b1-4)GlcNAc(b1-2)Man(a1-6)]Man(b1-4)GlcNAc(b1-4)GlcNAc
# Procedure, shortened: as §1
# [4] = target: GlcNAc(b1-3)Gal(b1-4)GlcNAc(b1-3)Gal(b1-4)GlcNAc(b1-2)Man(a1-3)[GlcNAc(b1-3)Gal(b1-4)GlcNAc(b1-3)Gal(b1-4)GlcNAc(b1-2)Man(a1-6)]Man(b1-4)GlcNAc(b1-4)[Fuc(a1-6)]GlcNAc
# Procedure, shortened: as §1
# [5] = target: GlcNAc(b1-3)Gal(b1-4)GlcNAc(b1-3)Gal(b1-4)GlcNAc(b1-2)[GlcNAc(b1-3)Gal(b1-4)GlcNAc(b1-3)Gal(b1-4)GlcNAc(b1-6)]Man(a1-6)[GlcNAc(b1-3)Gal(b1-4)GlcNAc(b1-3)Gal(b1-4)GlcNAc(b1-2)Man(a1-3)]Man(b1-4)GlcNAc(b1-4)[Fuc(a1-6)]GlcNAc
# Procedure, shortened: as §1
# [6] = target: GlcNAc(b1-3)Gal(b1-4)GlcNAc(b1-3)Gal(b1-4)GlcNAc(b1-3)Gal(b1-4)GlcNAc(b1-2)Man(a1-3)[GlcNAc(b1-3)Gal(b1-4)GlcNAc(b1-3)Gal(b1-4)GlcNAc(b1-3)Gal(b1-4)GlcNAc(b1-2)Man(a1-6)]Man(b1-4)GlcNAc(b1-4)GlcNAc
# Procedure, shortened: as §1
# [7] = target: GlcNAc(b1-3)Gal(b1-4)GlcNAc(b1-3)Gal(b1-4)GlcNAc(b1-3)Gal(b1-4)GlcNAc(b1-2)Man(a1-3)[GlcNAc(b1-3)Gal(b1-4)GlcNAc(b1-3)Gal(b1-4)GlcNAc(b1-3)Gal(b1-4)GlcNAc(b1-2)Man(a1-6)]Man(b1-4)GlcNAc(b1-4)[Fuc(a1-6)]GlcNAc
# Procedure, shortened: as §1
# [8] = target: GlcNAc(b1-3)Gal(b1-4)GlcNAc(b1-3)Gal(b1-4)GlcNAc(b1-3)Gal(b1-4)GlcNAc(b1-2)[GlcNAc(b1-3)Gal(b1-4)GlcNAc(b1-3)Gal(b1-4)GlcNAc(b1-3)Gal(b1-4)GlcNAc(b1-6)]Man(a1-6)[GlcNAc(b1-3)Gal(b1-4)GlcNAc(b1-3)Gal(b1-4)GlcNAc(b1-3)Gal(b1-4)GlcNAc(b1-2)Man(a1-3)]Man(b1-4)GlcNAc(b1-4)[Fuc(a1-6)]GlcNAc
# Procedure, shortened: as §1
# [9] = target: GlcNAc(b1-3)Gal(b1-4)GlcNAc(b1-3)Gal(b1-4)GlcNAc(b1-3)Gal(b1-4)GlcNAc(b1-3)Gal(b1-4)GlcNAc(b1-2)Man(a1-3)[GlcNAc(b1-3)Gal(b1-4)GlcNAc(b1-3)Gal(b1-4)GlcNAc(b1-3)Gal(b1-4)GlcNAc(b1-3)Gal(b1-4)GlcNAc(b1-2)Man(a1-6)]Man(b1-4)GlcNAc(b1-4)GlcNAc
# Procedure, shortened: as §1
# [10] = target: GlcNAc(b1-3)Gal(b1-4)GlcNAc(b1-3)Gal(b1-4)GlcNAc(b1-3)Gal(b1-4)GlcNAc(b1-3)Gal(b1-4)GlcNAc(b1-2)Man(a1-3)[GlcNAc(b1-3)Gal(b1-4)GlcNAc(b1-3)Gal(b1-4)GlcNAc(b1-3)Gal(b1-4)GlcNAc(b1-3)Gal(b1-4)GlcNAc(b1-2)Man(a1-6)]Man(b1-4)GlcNAc(b1-4)[Fuc(a1-6)]GlcNAc
# Procedure, shortened: as §1
# [11] = target: GlcNAc(b1-3)Gal(b1-4)GlcNAc(b1-3)Gal(b1-4)GlcNAc(b1-3)Gal(b1-4)GlcNAc(b1-3)Gal(b1-4)GlcNAc(b1-2)[GlcNAc(b1-3)Gal(b1-4)GlcNAc(b1-3)Gal(b1-4)GlcNAc(b1-3)Gal(b1-4)GlcNAc(b1-3)Gal(b1-4)GlcNAc(b1-6)]Man(a1-6)[GlcNAc(b1-3)Gal(b1-4)GlcNAc(b1-3)Gal(b1-4)GlcNAc(b1-3)Gal(b1-4)GlcNAc(b1-3)Gal(b1-4)GlcNAc(b1-2)Man(a1-3)]Man(b1-4)GlcNAc(b1-4)[Fuc(a1-6)]GlcNAc
# Procedure, shortened: as §1
# [12] = target: GlcNAc(b1-3)Gal(b1-4)GlcNAc(b1-3)Gal(b1-4)GlcNAc(b1-3)GalNAc
# Procedure, shortened: as §1
# [13] = target: GlcNAc(b1-3)Gal(b1-4)GlcNAc(b1-3)GalNAc
# Procedure, shortened: as §1
# [14] = target: GlcNAc(b1-3)Gal(b1-4)GlcNAc(b1-3)[GlcNAc(b1-3)Gal(b1-4)GlcNAc(b1-3)]GalNAc
# Procedure, shortened: as §1
# [15] = target: GlcNAc(b1-3)Gal(b1-4)GlcNAc(b1-6)[Gal(b1-3)]GalNAc
# Procedure, shortened: as §1
# [16] = target: GlcNAc(b1-3)Gal(b1-4)GlcNAc(b1-6)[GlcNAc(b1-3)Gal(b1-3)]GalNAc
# Procedure, shortened: as §1
# [17] = target: GlcNAc(b1-3)Gal(b1-4)GlcNAc(b1-6)[GlcNAc(b1-3)]Gal(b1-4)GlcNAc
# Procedure, shortened: as §1
# GlcNAc(b1-3)GalNAc = target: GlcNAc(b1-3)GalNAc
# Procedure, shortened: as §1
# GlcNAc(b1-3)Man = target: GlcNAc(b1-3)Man
# Procedure, shortened: as §1
# [18] = target: GlcNAc(b1-3)[GlcNAc(b1-4)][GlcNAc(b1-6)]GlcNAc
# Procedure, shortened: as §1
# [19] = target: GlcNAc(b1-3)[GlcNAc(b1-6)]Gal(b1-4)GlcNAc
# Procedure, shortened: as §1
# [20] = target: GlcNAc(b1-3)[GlcNAc(b1-6)]GalNAc
# Procedure, shortened: as §1
# [21] = target: GlcNAc(b1-4)Gal(b1-4)GlcNAc
# Procedure, shortened: as §1
# GlcNAc(b1-4)GlcNAc = target: GlcNAc(b1-4)GlcNAc
# Procedure, shortened: as §1
# [22] = target: GlcNAc(b1-4)GlcNAc(b1-4)GlcNAc
# Procedure, shortened: as §1
# [23] = target: GlcNAc(b1-4)GlcNAc(b1-4)GlcNAc(b1-4)GlcNAc(b1-4)GlcNAc
# Procedure, shortened: as §1
# [24] = target: GlcNAc(b1-4)GlcNAc(b1-4)GlcNAc(b1-4)GlcNAc(b1-4)GlcNAc(b1-4)GlcNAc
# Procedure, shortened: as §1
# [25] = target: GlcNAc(b1-4)[GlcNAc(b1-6)]GalNAc
# Procedure, shortened: as §1
# [26] = target: GlcNAc(b1-6)Gal(b1-4)GlcNAc
# Procedure, shortened: as §1
# GlcNAc(b1-6)GalNAc = target: GlcNAc(b1-6)GalNAc
# Procedure, shortened: as §1
# GlcNAc3Prop(b1-4)GlcNAc = target: GlcNAc3Prop(b1-4)GlcNAc
# Procedure, shortened: as §1
# [27] = target: GlcNAc6S(b1-3)Gal(b1-4)GlcNAc
# Procedure, shortened: as §1
# Kdn(a2-3)Gal(b1-3)GalNAc = target: Kdn(a2-3)Gal(b1-3)GalNAc
# Procedure, shortened: as §1
# Kdn(a2-3)Gal(b1-3)GlcNAc = target: Kdn(a2-3)Gal(b1-3)GlcNAc
# Procedure, shortened: as §1
# Kdn(a2-3)Gal(b1-4)Glc = target: Kdn(a2-3)Gal(b1-4)Glc
# Procedure, shortened: as §1
# Kdn(a2-3)Gal(b1-4)GlcNAc = target: Kdn(a2-3)Gal(b1-4)GlcNAc
# Procedure, shortened: as §1
# [28] = target: Kdn(a2-3)Gal(b1-4)[Fuc(a1-3)]GlcNAc
# Procedure, shortened: as §1
# Kdn(a2-6)Gal(b1-4)GlcNAc = target: Kdn(a2-6)Gal(b1-4)GlcNAc
# Procedure, shortened: as §1
binder,measurement,setting,value
MGL6A (Homo sapiens) (protein) MTRTYENFQYLENKVKVQGFKNGPLPLQSLLQRLCSGPCHLLLSLGLGLLLLVIICVVGFQNSKFQRDLVTLRTDFSNFTSNTVAEIQALTSQGSSLEETIASLKAEVEGFKQERQAVHSEMLLRVQQLVQDLKKLTCQVATLNNNGEEASTEGTCCPVNWVEHQDSCYWFSHSGMSWAEAEKYCQLKNAHLVVINSREEQNFVQKYLGSAYTWMGLSDPEGAWKWVDGTDYATGFQNWKPGQPDDWQGHGLGGGEDCAHFHPDGRWNDDVCQRPYHWVCEAGLGQTSQESH,glycan array binding signal (z-score),[1],-0.169
same,glycan array binding signal (z-score),[2],0.5
same,glycan array binding signal (z-score),[3],-0.235
same,glycan array binding signal (z-score),[4],-0.216
same,glycan array binding signal (z-score),[5],-0.226
same,glycan array binding signal (z-score),[6],-0.223
same,glycan array binding signal (z-score),[7],-0.246
same,glycan array binding signal (z-score),[8],-0.213
same,glycan array binding signal (z-score),[9],-0.262
same,glycan array binding signal (z-score),[10],-0.225
same,glycan array binding signal (z-score),[11],-0.218
same,glycan array binding signal (z-score),[12],-0.224
same,glycan array binding signal (z-score),[13],-0.327
same,glycan array binding signal (z-score),[14],-0.284
same,glycan array binding signal (z-score),[15],-0.282
same,glycan array binding signal (z-score),[16],-0.261
same,glycan array binding signal (z-score),[17],-0.266
same,glycan array binding signal (z-score),GlcNAc(b1-3)GalNAc,-0.185
same,glycan array binding signal (z-score),GlcNAc(b1-3)Man,-0.243
same,glycan array binding signal (z-score),[18],-0.289
same,glycan array binding signal (z-score),[19],-0.28
same,glycan array binding signal (z-score),[20],-0.288
same,glycan array binding signal (z-score),[21],-0.292
same,glycan array binding signal (z-score),GlcNAc(b1-4)GlcNAc,-0.303
same,glycan array binding signal (z-score),[22],-0.268
same,glycan array binding signal (z-score),[23],-0.293
same,glycan array binding signal (z-score),[24],-0.3
same,glycan array binding signal (z-score),[25],-0.344
same,glycan array binding signal (z-score),[26],-0.251
same,glycan array binding signal (z-score),GlcNAc(b1-6)GalNAc,3.72
same,glycan array binding signal (z-score),GlcNAc3Prop(b1-4)GlcNAc,-0.542
same,glycan array binding signal (z-score),[27],-0.213
same,glycan array binding signal (z-score),Kdn(a2-3)Gal(b1-3)GalNAc,-0.265
same,glycan array binding signal (z-score),Kdn(a2-3)Gal(b1-3)GlcNAc,-0.237
same,glycan array binding signal (z-score),Kdn(a2-3)Gal(b1-4)Glc,-0.267
same,glycan array binding signal (z-score),Kdn(a2-3)Gal(b1-4)GlcNAc,-0.282
same,glycan array binding signal (z-score),[28],-0.251
same,glycan array binding signal (z-score),Kdn(a2-6)Gal(b1-4)GlcNAc,-0.316
